In patent publication US9603820B2, “Ornithine aminotransferase inhibition with GABA analogues for treatment of hepatocellular carcinoma” (Northwestern University, priority 2014, dated 2017):
Where two headings read alike, the source gives them in different places.

Key:
[1] = target: T1, ornithine aminotransferase (OAT) (Homo sapiens, UniProt P04181); assay: Time-dependent inactivation of OAT and dialysis of the inactivated enzyme; assay type: biochemical
T1 sequence (P04181 36-439 limits assumed): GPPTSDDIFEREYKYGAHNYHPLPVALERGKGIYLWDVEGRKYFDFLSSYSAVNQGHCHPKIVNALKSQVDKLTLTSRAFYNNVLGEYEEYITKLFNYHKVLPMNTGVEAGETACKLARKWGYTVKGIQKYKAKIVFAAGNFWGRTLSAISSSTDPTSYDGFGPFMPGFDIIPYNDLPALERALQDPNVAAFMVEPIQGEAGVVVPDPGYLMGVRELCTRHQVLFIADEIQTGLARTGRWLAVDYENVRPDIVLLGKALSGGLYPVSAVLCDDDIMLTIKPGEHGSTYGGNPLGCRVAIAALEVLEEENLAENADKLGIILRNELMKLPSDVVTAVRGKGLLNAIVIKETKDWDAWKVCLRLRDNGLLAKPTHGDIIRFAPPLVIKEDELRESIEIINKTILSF
Experimental: OAT activity assays were carried out using as follows.
OAT incubated without the inactivator serves as a control. After 24 h, the enzyme solutions are transferred to a D-Tube™ Mini dialyzer and exhaustively dialyzed against the buffer (100 mM pyrophosphate buffer containing 0.1 mM alpha-ketoglutarate and 0.1 mM PLP, pH 8.0) at 4° C. protected from light. The dialysis buffer is exchanged three times every 4 h and left overnight. After 48 h of dialysis, the remaining OAT activity in each of the solutions is assayed.
For the determination of KI and kinact values, the natural logarithm of the percentage of remaining OAT activity is plotted against the pre-incubation time at each inhibitor concentration to obtain the kobs (slope) value for each concentration. The kobs is the rate constant describing the inactivation at each inhibitor concentration. kobs is re-plotted against the inhibitor concentration using nonlinear regression analysis (Graph-Pad Prism 6; GraphPad Software Inc.). kinact and the KI were estimated from the equation below: […], where kinact is the maximal rate of inactivation, KI is the inhibitor concentration required for half-maximal inactivation, and [I] is the pre-incubation concentration of inhibitor. […] The initial rate constants for the inactivation at various concentrations of the two compounds are determined using nonlinear regression analysis.

[2] = Effect on respiration; settings: in vivo
[3] = rat, in vivo
Experimental: At the conclusion of dosing, rats entered a wash-out period (5-7 days) after which electroretinograms (ERGs) for scotopic (rod), mesopic (standard combined), photopic (cone), and 10 Hz and 15 Hz3 flicker ERG responses were collected for both eyes from each rat.
Quantitative histological examinations of retinas of the rats from this study were also carried out. Cone receptors were stained with a cone arrestin antibody and counterstained with a red stain for visualization and counting. Retinal sections were also stained with H&E and the ONL nuclei counts and ONL thicknesses were determined.

[4] = Dose range finding (Part B), i.p. once daily up to 14 days
[5] = test system: cytochrome P450s
[6] = Acute toxicity, maximum tolerated dose (Part A), single i.p. injection; assay type: in vivo, Wistar Albino rats
Experimental: A maximum tolerated dose (Part A) and dose range finding (Part B) study of CPP-115 was conducted in Wistar Albino rats. In Part A of the study, 17 male and 18 female rats, placed in 8 treatment groups, received a single i.p. injection of CPP-115 at a dose of 0.5, 5, 30, 50, 75, 100, 150, or 300 mg/kg.

[7] = Metabolic stability in cryopreserved human hepatocytes; assay type: in vitro ADME; settings: for loss of CPP-115 during incubation: 5 μM
Experimental: The metabolic stability of CPP-115 was evaluated in cryopreserved human hepatocytes using a LC/MS/MS method. Cryopreserved human hepatocytes were prepared from a pool of 3 individuals (1,000,000 cells/mL) and incubated in triplicate with CPP-115 (5 μM) for 0, 10, 60, 120, and 240 minutes.

[8] = target: T1, ornithine aminotransferase (OAT); assay: Continuous coupled OAT assay (PYCR1/NADH), inhibition of OAT; assay type: biochemical; settings: FIG. 2
Text: With these two assays in hand, the activity of a variety of compounds made previously as potential inhibitors of GABA-AT were investigated.

[9] = dog, in vivo, po
[10] = target: hERG potassium channel (Homo sapiens, UniProt Q12809)
UniProt Q12809, sequence (Q12809 whole entry): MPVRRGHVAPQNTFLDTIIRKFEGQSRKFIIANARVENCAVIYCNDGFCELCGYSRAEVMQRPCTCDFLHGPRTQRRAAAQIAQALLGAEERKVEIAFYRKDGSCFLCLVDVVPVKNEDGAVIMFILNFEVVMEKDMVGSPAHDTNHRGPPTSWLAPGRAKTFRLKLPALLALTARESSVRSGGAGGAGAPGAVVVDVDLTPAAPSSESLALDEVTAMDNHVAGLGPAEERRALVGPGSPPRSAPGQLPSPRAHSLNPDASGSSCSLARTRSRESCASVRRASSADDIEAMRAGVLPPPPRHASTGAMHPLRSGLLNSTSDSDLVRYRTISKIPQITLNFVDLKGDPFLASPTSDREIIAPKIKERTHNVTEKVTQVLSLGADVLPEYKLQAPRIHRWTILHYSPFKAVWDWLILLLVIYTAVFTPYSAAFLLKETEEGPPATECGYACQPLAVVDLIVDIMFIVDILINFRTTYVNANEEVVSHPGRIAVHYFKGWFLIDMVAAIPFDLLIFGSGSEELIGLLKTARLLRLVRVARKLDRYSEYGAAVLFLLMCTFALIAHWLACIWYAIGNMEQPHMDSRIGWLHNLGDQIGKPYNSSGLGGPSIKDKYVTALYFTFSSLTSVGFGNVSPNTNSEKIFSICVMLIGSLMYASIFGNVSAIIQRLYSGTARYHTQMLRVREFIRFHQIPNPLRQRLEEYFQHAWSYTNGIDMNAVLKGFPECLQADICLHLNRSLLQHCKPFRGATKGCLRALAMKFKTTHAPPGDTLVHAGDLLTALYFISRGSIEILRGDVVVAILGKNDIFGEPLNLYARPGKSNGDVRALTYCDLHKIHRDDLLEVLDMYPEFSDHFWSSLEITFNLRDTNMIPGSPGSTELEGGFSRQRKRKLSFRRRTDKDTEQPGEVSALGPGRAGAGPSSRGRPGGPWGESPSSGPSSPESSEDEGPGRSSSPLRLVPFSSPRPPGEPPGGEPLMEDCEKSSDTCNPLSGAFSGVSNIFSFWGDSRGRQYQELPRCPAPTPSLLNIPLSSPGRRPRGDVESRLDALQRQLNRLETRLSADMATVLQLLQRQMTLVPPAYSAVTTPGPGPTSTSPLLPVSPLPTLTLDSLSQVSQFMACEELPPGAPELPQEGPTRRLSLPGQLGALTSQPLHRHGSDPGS

[11] = target: T2, hGAT-2 (Homo sapiens, UniProt Q9NSD5); assay: [3H]GABA uptake in transfected tsA201 cells; assay type: cell-based; settings: hGAT-2, 37° C., 3 minutes
T2 construct: expressed in transfected cells; host or cells: tsA201 cells
T2 sequence (Q9NSD5 1-602): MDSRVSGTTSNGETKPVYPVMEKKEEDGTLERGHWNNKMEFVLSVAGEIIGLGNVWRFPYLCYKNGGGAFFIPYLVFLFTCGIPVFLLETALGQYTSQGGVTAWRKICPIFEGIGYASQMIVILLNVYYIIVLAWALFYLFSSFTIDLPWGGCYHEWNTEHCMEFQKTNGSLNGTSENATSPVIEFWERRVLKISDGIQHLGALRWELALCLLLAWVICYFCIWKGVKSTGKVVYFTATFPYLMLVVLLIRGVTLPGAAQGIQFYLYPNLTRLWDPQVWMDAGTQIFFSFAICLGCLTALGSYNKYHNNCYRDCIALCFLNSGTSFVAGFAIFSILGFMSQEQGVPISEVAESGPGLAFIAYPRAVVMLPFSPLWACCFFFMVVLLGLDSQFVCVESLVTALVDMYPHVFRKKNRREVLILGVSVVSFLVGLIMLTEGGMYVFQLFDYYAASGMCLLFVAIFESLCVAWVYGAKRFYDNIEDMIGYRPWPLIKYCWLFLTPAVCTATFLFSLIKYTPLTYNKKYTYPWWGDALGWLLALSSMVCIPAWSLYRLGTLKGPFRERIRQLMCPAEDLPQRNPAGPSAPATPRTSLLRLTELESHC
Experimental: (§1) Plasmids encoding hGAT-1, hBGT-1, hGAT-2, and hGAT-3 were transfected into tsA201 cells. The next day tsA201 cells transiently expressing each of the 4 GABA transporter subtypes were plated followed by (36 to 48 hours later) addition of [3H]GABA (30 nM) and CPP-115 (1 mM). Uptake of [3H]GABA was determined after incubation at 37° C. for 3 minutes.

[12] = target: T3, hGAT-1 (Homo sapiens, UniProt P30531); assay: [3H]GABA uptake in transfected tsA201 cells; assay type: cell-based; settings: hGAT-1, 37° C., 3 minutes
T3 construct: expressed in transfected cells; host or cells: tsA201 cells
T3 sequence (P30531 whole entry): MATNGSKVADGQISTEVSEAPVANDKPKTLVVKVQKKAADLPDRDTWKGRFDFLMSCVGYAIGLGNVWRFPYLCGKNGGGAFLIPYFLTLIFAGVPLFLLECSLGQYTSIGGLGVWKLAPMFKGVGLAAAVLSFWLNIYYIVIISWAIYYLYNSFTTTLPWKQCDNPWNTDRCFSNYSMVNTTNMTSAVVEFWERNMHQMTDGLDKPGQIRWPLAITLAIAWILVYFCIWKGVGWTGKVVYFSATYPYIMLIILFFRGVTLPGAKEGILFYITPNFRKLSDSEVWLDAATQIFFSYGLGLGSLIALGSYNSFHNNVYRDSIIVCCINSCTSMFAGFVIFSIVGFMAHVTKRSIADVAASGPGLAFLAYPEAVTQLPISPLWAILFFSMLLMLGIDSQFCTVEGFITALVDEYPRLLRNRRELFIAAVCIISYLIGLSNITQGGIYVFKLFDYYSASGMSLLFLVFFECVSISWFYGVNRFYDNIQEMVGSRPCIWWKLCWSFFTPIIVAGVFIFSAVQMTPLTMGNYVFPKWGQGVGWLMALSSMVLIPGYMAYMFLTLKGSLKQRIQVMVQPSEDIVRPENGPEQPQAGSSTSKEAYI
Experimental: as §1

[13] = target: T4, hGAT-3 (Homo sapiens, UniProt P48066); assay: [3H]GABA uptake in transfected tsA201 cells; assay type: cell-based; settings: hGAT-3, 37° C., 3 minutes
T4 construct: expressed in transfected cells; host or cells: tsA201 cells
T4 sequence (P48066 1-632): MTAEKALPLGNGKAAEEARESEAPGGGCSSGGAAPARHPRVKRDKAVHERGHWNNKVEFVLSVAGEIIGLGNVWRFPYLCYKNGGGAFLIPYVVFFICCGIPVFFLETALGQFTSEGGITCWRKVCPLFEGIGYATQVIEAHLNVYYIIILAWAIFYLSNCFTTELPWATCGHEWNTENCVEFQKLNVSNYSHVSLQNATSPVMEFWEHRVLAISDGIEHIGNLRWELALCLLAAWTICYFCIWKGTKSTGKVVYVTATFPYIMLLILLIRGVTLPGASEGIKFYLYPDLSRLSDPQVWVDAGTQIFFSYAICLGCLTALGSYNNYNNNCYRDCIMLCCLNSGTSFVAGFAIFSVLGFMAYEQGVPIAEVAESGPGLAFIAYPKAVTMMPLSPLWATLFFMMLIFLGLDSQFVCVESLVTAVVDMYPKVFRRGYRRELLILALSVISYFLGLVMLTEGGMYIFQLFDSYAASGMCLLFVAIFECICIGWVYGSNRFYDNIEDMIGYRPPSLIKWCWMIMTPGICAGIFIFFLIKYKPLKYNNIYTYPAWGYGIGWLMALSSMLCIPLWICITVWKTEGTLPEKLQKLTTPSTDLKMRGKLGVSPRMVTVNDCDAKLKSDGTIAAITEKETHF
Experimental: as §1

[14] = target: T5, hBGT-1 (Homo sapiens, UniProt P48065); assay: [3H]GABA uptake in transfected tsA201 cells; assay type: cell-based; settings: hBGT-1, 37° C., 3 minutes
T5 construct: expressed in transfected cells; host or cells: tsA201 cells
T5 sequence (P48065 1-614): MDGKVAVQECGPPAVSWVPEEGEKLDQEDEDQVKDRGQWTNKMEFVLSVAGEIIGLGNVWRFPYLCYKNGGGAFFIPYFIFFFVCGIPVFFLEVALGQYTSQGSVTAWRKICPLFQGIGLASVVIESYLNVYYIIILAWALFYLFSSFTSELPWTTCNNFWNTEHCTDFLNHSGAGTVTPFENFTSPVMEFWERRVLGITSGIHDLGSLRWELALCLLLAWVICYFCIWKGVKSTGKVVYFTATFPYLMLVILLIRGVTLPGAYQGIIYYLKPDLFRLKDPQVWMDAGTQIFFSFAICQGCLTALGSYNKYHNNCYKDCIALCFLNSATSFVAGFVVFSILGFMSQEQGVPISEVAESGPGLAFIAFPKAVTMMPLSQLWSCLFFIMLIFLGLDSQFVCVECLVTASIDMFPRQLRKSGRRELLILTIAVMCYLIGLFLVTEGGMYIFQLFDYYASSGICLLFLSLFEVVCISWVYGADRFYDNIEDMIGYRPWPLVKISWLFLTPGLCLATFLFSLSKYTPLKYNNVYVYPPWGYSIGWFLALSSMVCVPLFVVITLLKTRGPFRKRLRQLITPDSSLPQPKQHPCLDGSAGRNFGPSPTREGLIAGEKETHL
Experimental: as §1

[15] = test system: glutamate decarboxylase; assay: Inhibition of glutamate decarboxylase; assay type: biochemical; settings: even at 6 mM concentration
[16] = target: GABAB (Homo sapiens, UniProt Q9UBS5); assay: Binding to GABAB

SMILES: N[C@H]1C[C@@H](C(=O)O)CC1=C(F)F [CPP-115, (1S,3S)-3-amino-4-difluoromethylenyl-1-cyclopentanoic acid]
- OAT inactivation, time and concentration dependence [1]: time- and concentration-dependent
- inhibition/inactivation of OAT [1]: does inhibit/inactivate OAT
- effect on respiration [2]: no adverse effect on respiration
- ONL nuclei counts and ONL thickness vs control group [3]: no significant change
- cone receptor counts [3]: no statistically significant change
- clinical findings ([4]; 10 mg/kg i.p. once daily): No dose-related clinical findings
- tolerated daily repeat dosing level ([4]; i.p. once daily for 14 days): up to 20 mg/kg
- doses with cumulative effect (weight loss, unkempt appearance, apathy, unconsciousness) ([4]; repeated i.p. dosing): ≥ 30 mg/kg
- inhibition or induction of cytochrome P450s [5]: does not inhibit or induce
- outcome at the highest dose ([6]; 300 mg/kg single i.p.): euthanized in extremis
- dose levels with clinical findings ([6]; single i.p. administration): ≥ 75 mg/kg
- metabolism by hepatocytes [7]: not metabolized by hepatocytes
- loss of CPP-115 during incubation ([7]; 10 minutes, 1,000,000 cells/mL): 6%
- loss of CPP-115 during incubation ([7]; 240 minutes, 1,000,000 cells/mL): 16%
- inhibition of / binding to OAT, in words [8]: next best inhibitor of OAT
- increase in mean Cmax and AUC0-24 with dose [9]: generally dose proportional
- binding to the hERG channel [10]: does not bind
- inhibition of hERG potassium current, mean ([10]; 10 µM): 1.1%
- inhibition of hERG potassium current, mean ([10]; 300 µM): 1.5%
- IC50 [11]: > 1 mM
- IC50 [12]: > 1 mM
- IC50 [13]: > 1 mM
- IC50 [14]: > 1 mM
- inhibition of glutamate decarboxylase [15]: does not inhibit
- binding to GABAB [16]: does not bind
